Laboratory results published in the supplement of paper PMC10126150.
Sequences with one replicate were seen in a single cluster, so their values are uncertain.

System: ATP
Assay: switch fluorescence ratio, 500 uM ATP over buffer (Cy3 cluster intensity, sum of 5 cycles each) (fold (ratio)); higher = stronger signal-on switching upon ATP binding; sequences stand for … in TCGTCGGCAGCGTCAGATGTGTATAAGAGACAGTTTTTTTTTTTTTTTTTTTTTTTTT…TC
Settings: aptamer strand: ATP DNA aptamer (quencher-CACCTGGGGGAGTATTGCGGAGGAAGG + anchor), 100 nM annealed; ATP concentration: 500 uM; one replicate
Procedure, shortened: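 The fluorescence ratio divides summed target-cycle Cy3 intensity by summed buffer-cycle Cy3 intensity for each cluster and is averaged per switch-domain sequence. Cy3-labelled switching-strand clusters on a modified Illumina MiSeq flow-cell were annealed to 100 nM quencher-labelled ATP aptamer, then imaged in selection buffer and again after 15 min with 500 uM ATP at 22 °C. Five such cycles were run, with NaOH stripping and re-annealing between them, and clusters outside 100-1000 RFU were excluded.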
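Note: ATP exposure 15 min at 22 °C before imaging.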

Sequence	switch fluorescence ratio
CTAGTGATGG	0.973
CTAGTGCATG	0.978
CTAGTGTGG	0.966
CTAGTTAACA	1.01
CTAGTTATTC	0.907
CTAGTTTCAT	1
CTATACTATG	0.993
CTATACTCCT	1.73
CTATAGAGAC	1.05
CTATAGAGGG	0.991
CTATAGGGCG	1
CTATAGGGGA	1.11
CTATATAGGC	1.03
CTATCAAA	1.03
CTATCACAGA	1.03
CTATCACGT	0.979
CTATCACTCC	1.16
CTATCTACAT	1.05
CTATGAGTTC	1.01
CTATGGCGGG	0.964
CTATGTCGTA	1
CTATGTTATA	0.987
CTATGTTTCT	0.979
CTATTAACT	1.05
CTATTAGGAG	0.964

Sequence	switch fluorescence ratio
CTATTATACT	1.02
CTATTCCATG	1.01
CTATTCCGGC	1.03
CTATTGCGAA	1.04
CTATTTAGCT	1.02
CTATTTCGA	1.01
CTATTTGAA	1.01
CTCAAAACTT	1.03
CTCAAATCCC	1.05
CTCAACAGCA	1.04
CTCAACTAAC	1.2
CTCAAGCGGA	1.41
CTCAAGGATA	1.07
CTCAATACTA	2.2
CTCACAATAT	3.96
CTCACTCCAC	1.51
CTCAGACATG	0.981
CTCAGACGAC	1.42
CTCAGATCAT	0.968
CTCAGATTCT	1.02
CTCAGCATAG	4.63
CTCAGCCTAA	1.3
CTCAGCGCGA	1.58
CTCAGGAGTG	1.01
CTCAGGTTTT	0.986

Sequence	switch fluorescence ratio
CTCAGTCCCG	0.972
CTCAGTTCAG	0.987
CTCAGTTGTT	1
CTCATACGGA	1.07
CTCATATGAG	1.04
CTCATCACCG	1.03
CTCATCCGAG	1.09
CTCATGTGAA	0.973
CTCATTAGTT	0.96
CTCCAATGTA	1.39
CTCCATACGC	2.11
CTCCCCTGGG	3.91
CTCCCGAACG	1.51
CTCCCTTCCA	1.36
CTCCGAGGCG	1.87
CTCCGGAGG	1.02
CTCCGTTGCG	1.4
CTCCTAAAGT	1.07
CTCCTCCCAT	3.5
CTCCTGAAAT	1.24
CTCCTGCTTA	1.75
CTCCTTTGAG	0.99
CTCGAAAAAG	0.968
CTCGAACTAC	3.75
CTCGACCGCA	2.61

Sequence	switch fluorescence ratio
CTCGACTCCG	1.11
CTCGATAACG	0.922
CTCGCATTCT	3.88
CTCGCCCGTG	1.05
CTCGCGGTGT	1.07
CTCGCTCATA	1.28
CTCGCTTGGT	1.01
CTCGGAACAC	2.47
CTCGGACGGC	1.01
CTCGGCAAGG	2.53
CTCGGCCGGA	0.964
CTCGGCGCCC	1.19
CTCGGGGGTG	0.964
CTCGGTAATT	1.34
CTCGGTGATC	1.06
CTCGGTTTGA	1.02
CTCGGTTTGT	0.945
CTCGTATTTG	1.01
CTCGTCCGTG	1.01
CTCGTGACTA	1.02
CTCGTTAGTG	1.02
CTCTAAAGAT	1.11
CTCTAAGGTG	2.02
CTCTACAAGC	1.92
CTCTACCCTA	1.05

Sequence	switch fluorescence ratio
CTCTATGACT	1.01
CTCTCCGACT	1.3
CTCTCCTTTA	1.06
CTCTCGAGCT	1.05
CTCTCGAGGA	1.02
CTCTCGGGTT	0.964
CTCTGCATGT	4.65
CTCTTAATTA	0.984
CTCTTCGGGG	1.06
CTCTTGCGGT	1.01
CTCTTGGCT	1.03
CTGAAAGGTT	0.983
CTGAACATAG	1.02
CTGAAGACGG	1.01
CTGAATAGGA	0.983
CTGAATGTAA	1.13
CTGACACTAA	1.18
CTGACCGGAT	1.05
CTGACGAGAC	4.26
CTGACGGGG	1.06
CTGACGGTGG	0.946
CTGACGTGTC	1.31
CTGACTAAG	1.02
CTGACTCCTA	1.83
CTGAGAAATG	0.988

Sequence	switch fluorescence ratio
CTGAGACGAA	0.954
CTGAGACTGT	1.02
CTGAGCAAGG	2.51
CTGAGCATCC	1.5
CTGAGCCTG	0.976
CTGAGGATCT	1.02
CTGAGGCGTA	1.11
CTGAGGCTAG	1.15
CTGAGGGTCA	0.985
CTGAGGTGGG	0.995
CTGAGTGGAT	0.989
CTGAGTGGCC	0.995
CTGATACCAA	1.08
CTGATACGAT	1.06
CTGATACTTG	1.02
CTGATAGGG	0.967
CTGATCGACC	1.21
CTGATCTTCT	1
CTGATGCGAA	1.15
CTGATGTAGT	1.01
CTGATTCCCC	1.14
CTGATTGACA	1.05
CTGATTTAA	1.01
CTGCAACTTA	1.19
CTGCAAGTTA	1.14

Sequence	switch fluorescence ratio
CTGCAATCG	1.34
CTGCACGAGC	1.11
CTGCAGGCAG	1
CTGCAGTCAT	1.17
CTGCATAAGG	1.18
CTGCATGAAA	0.967
CTGCCAAGGC	1.62
CTGCCCCTTA	1
CTGCCGCTAG	3.44
CTGCCGCTGC	1.69
CTGCCGGGAA	1.04
CTGCCTATTT	0.988
CTGCGAGACT	2.87
CTGCGCAGGT	0.994
CTGCGCCATA	1.65
CTGCGGGGCT	1.27
CTGCGGGTCG	1.01
CTGCGTGGCT	1.03
CTGCTAAAA	0.974
CTGCTAACGT	1.01
CTGCTAGGA	1.01
CTGCTAGTT	0.956
CTGCTATAAG	1.07
CTGCTGAATA	0.998
CTGCTGGCTG	1.03

Sequence	switch fluorescence ratio
CTGCTGGGCG	1.04
CTGCTTTCTA	0.983
CTGGACCTGT	1
CTGGACGCGC	1.28
CTGGACGCGT	1.01
CTGGACGGGT	1.04
CTGGAGCCGC	1.97
CTGGAGCGGC	1.75
CTGGAGGCAT	1.51
CTGGAGTACA	1.64
CTGGATGCTC	1.16
CTGGATGTGT	0.975
CTGGCACGTA	1.07
CTGGCACTTC	1.1
CTGGCAGTCT	0.984
CTGGCCAAG	1.02
CTGGCCGAGG	1.02
CTGGCCGGAC	1.06
CTGGCCTGCA	1.04
CTGGCTAGAC	1.73
CTGGCTCGTA	0.976
CTGGGACTAG	0.976
CTGGGAGGCG	0.967
CTGGGAGTTC	0.975
CTGGGATATT	1.04
